PMC6796939
Results are given in words; binding and its absence hold for the method and conditions named. In cells and extracts the contact can be indirect. Some results given as binding are weak or reduced against the parent protein; the word gives no strength. Sequences can lack the tags named with a protein.

Legend:
Experiment in all cases: co-IP; S2 cells co-transfected with tagged constructs; lysed in NP-40 buffer (50 mM Tris-Cl pH 8.0, 0.1 M NaCl, 1% NP-40, 10% glycerol, 1.5 mM EDTA) at 4 °C; primary antibody (anti-V5, anti-HA, anti-Flag) 2 h, protein A/G 1 h; western blot; some panels with or without Hh (Hh plasmid and Hh conditioned medium), some with dsRNA against ptc 5'UTR to knock down endogenous Ptc
PtcWTΔC7-V5 (Drosophila) = target: T1, PtcWTΔC7-V5 (Drosophila) (UniProt P18502)
T1 sequence: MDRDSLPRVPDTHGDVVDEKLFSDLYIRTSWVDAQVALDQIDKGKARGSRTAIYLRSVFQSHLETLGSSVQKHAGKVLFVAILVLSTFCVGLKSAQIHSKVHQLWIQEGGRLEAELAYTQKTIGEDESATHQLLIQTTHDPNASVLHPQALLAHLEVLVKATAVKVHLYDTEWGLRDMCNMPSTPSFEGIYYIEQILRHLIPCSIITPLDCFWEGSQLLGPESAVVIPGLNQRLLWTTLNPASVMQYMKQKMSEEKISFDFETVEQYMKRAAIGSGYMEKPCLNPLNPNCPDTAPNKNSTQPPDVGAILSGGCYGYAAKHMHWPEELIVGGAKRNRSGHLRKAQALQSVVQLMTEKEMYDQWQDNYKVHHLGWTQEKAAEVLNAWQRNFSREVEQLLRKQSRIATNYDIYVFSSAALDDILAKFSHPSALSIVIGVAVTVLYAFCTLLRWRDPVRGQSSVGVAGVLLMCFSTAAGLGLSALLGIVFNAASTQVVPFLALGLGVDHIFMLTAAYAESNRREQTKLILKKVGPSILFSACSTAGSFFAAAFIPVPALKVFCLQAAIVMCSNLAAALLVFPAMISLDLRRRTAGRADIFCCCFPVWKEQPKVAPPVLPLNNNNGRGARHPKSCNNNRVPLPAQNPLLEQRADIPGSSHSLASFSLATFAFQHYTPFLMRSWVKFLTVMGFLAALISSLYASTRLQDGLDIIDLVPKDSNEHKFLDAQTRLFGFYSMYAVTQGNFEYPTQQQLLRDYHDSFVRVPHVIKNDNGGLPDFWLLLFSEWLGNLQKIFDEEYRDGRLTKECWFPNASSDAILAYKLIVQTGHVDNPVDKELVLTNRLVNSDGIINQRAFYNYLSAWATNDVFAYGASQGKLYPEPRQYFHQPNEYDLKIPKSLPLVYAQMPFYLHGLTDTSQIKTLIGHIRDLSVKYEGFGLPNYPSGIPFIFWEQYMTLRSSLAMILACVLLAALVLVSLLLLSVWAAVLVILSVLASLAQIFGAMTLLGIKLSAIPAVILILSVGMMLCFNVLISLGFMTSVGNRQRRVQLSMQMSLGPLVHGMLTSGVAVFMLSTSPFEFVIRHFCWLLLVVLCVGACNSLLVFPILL

Ptc-C7-V5 (Drosophila) = target: T2, Ptc-C7-V5 (Drosophila) (UniProt P18502)
T2 sequence: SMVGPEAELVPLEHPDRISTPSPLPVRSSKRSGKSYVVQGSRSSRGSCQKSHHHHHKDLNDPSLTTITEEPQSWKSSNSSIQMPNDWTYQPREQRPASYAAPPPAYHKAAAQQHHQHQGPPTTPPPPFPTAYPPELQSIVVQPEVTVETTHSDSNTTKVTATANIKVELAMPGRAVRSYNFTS

Ptc-C4-V5 (Drosophila) = target: T3, Ptc-C4-V5 (Drosophila) (UniProt P18502)
T3 sequence: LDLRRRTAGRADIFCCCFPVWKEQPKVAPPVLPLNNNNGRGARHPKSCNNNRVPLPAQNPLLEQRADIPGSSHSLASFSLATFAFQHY

[1] = target: T4, membrane-tethered Ptc-C7 (Myrflg-Ptc-C7-V5) (Drosophila) (UniProt P18502)
T4 sequence: T2 sequence

binding (PtcWTΔC7-V5 (Drosophila)): binds
binding (Ptc-C7-V5 (Drosophila)): no binding
binding (Ptc-C4-V5 (Drosophila)): binds
binding [1]: no binding
Substance: HA tagged PKAc (3XHA-PKAc) (from UniProt P12370 1-353) (enzyme)
